Assay results: the supplement of paper PMC8728848
The list shows a part of the results.

What was measured:
Test in all cases: glycan array binding signal (z-score within array); higher = stronger binding
Conditions in all cases: glycan notation: IUPAC condensed, linker removed
[1] = target: Neu5Ac(a2-3)Gal(b1-4)GlcNAc(b1-3)[Neu5Ac(a2-3)Gal(b1-4)GlcNAc(b1-6)]GalNAc
In short: (§1)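 The Consortium for Functional Glycomics database supplied 3228 glycan arrays, of which those lacking an available protein sequence were dropped. The binding signal, a within-array Z-score, was averaged across arrays of the same protein sequence and across linkers. Negative scores can be read as non-binding.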

[2] = target: Neu5Ac(a2-3)Gal(b1-4)GlcNAc(b1-6)GalNAc
In short: as §1

[3] = target: Neu5Ac(a2-3)Gal(b1-4)GlcNAc(b1-6)[Gal(b1-3)]GalNAc
In short: as §1

[4] = target: Neu5Ac(a2-3)Gal(b1-4)GlcNAc(b1-6)[Neu5Ac(a2-3)Gal(b1-3)]GalNAc
In short: as §1

[5] = target: Neu5Ac(a2-3)Gal(b1-4)GlcNAc6S
In short: as §1

[6] = target: Neu5Ac(a2-3)Gal(b1-4)[Fuc(a1-3)]GlcNAc
In short: as §1

[7] = target: Neu5Ac(a2-3)Gal(b1-4)[Fuc(a1-3)]GlcNAc(b1-2)Man
In short: as §1

[8] = target: Neu5Ac(a2-3)Gal(b1-4)[Fuc(a1-3)]GlcNAc(b1-3)Gal
In short: as §1

[9] = target: Neu5Ac(a2-3)Gal(b1-4)[Fuc(a1-3)]GlcNAc(b1-3)Gal(b1-4)GlcNAc
In short: as §1

[10] = target: Neu5Ac(a2-3)Gal(b1-4)[Fuc(a1-3)]GlcNAc(b1-3)Gal(b1-4)[Fuc(a1-3)]GlcNAc(b1-3)Gal(b1-4)[Fuc(a1-3)]GlcNAc
In short: as §1

[11] = target: Neu5Ac(a2-3)Gal(b1-4)[Fuc(a1-3)]GlcNAc(b1-3)GalNAc
In short: as §1

[12] = target: Neu5Ac(a2-3)Gal(b1-4)[Fuc(a1-3)]GlcNAc(b1-6)[Gal(b1-3)]GalNAc
In short: as §1

[13] = target: Neu5Ac(a2-3)Gal(b1-4)[Fuc(a1-3)]GlcNAc(b1-6)[Neu5Ac(a2-3)Gal(b1-3)]GalNAc
In short: as §1

[14] = target: Neu5Ac(a2-3)Gal(b1-4)[Fuc(a1-3)]GlcNAc6S
In short: as §1

[15] = target: Neu5Ac(a2-3)Gal6S(b1-4)GlcNAc
In short: as §1

[16] = target: Neu5Ac(a2-3)Gal6S(b1-4)[Fuc(a1-3)]GlcNAc
In short: as §1

[17] = target: Neu5Ac(a2-3)GalNAc
In short: as §1

[18] = target: Neu5Ac(a2-3)GalNAc(b1-4)GlcNAc
In short: as §1

[19] = target: Neu5Ac(a2-3)[GalNAc(b1-4)]Gal(b1-4)Glc
In short: as §1

[20] = target: Neu5Ac(a2-3)[GalNAc(b1-4)]Gal(b1-4)GlcNAc
In short: as §1

[21] = target: Neu5Ac(a2-3)[GalNAc(b1-4)]Gal(b1-4)GlcNAc(b1-3)GalNAc
In short: as §1

[22] = target: Neu5Ac(a2-3)[Neu5Ac(a2-6)]GalNAc
In short: as §1

[23] = target: Neu5Ac(a2-6)Gal
In short: as §1

[24] = target: Neu5Ac(a2-6)Gal(b1-3)GlcNAc(b1-3)[Gal(b1-4)GlcNAc(b1-6)]Gal(b1-4)Glc
In short: as §1

[25] = target: Neu5Ac(a2-6)Gal(b1-4)Glc
In short: as §1

[26] = target: Neu5Ac(a2-6)Gal(b1-4)GlcNAc
In short: as §1

[27] = target: Neu5Ac(a2-6)Gal(b1-4)GlcNAc(b1-2)Man
In short: as §1

[28] = target: Neu5Ac(a2-6)Gal(b1-4)GlcNAc(b1-2)Man(a1-3)Man(b1-4)GlcNAc(b1-4)GlcNAc
In short: as §1

[29] = target: Neu5Ac(a2-6)Gal(b1-4)GlcNAc(b1-2)Man(a1-3)[Gal(b1-4)GlcNAc(b1-2)Man(a1-6)]Man(b1-4)GlcNAc(b1-4)GlcNAc
In short: as §1

[30] = target: Neu5Ac(a2-6)Gal(b1-4)GlcNAc(b1-2)Man(a1-3)[GlcNAc(b1-2)Man(a1-6)]Man(b1-4)GlcNAc(b1-4)GlcNAc
In short: as §1

B1: CC1G-10077 (Coprinopsis cinerea), A8NDT7 (protein)
chain: MALNEGVYWIRNSRFTNKVLDLDAANVAKGTSILDFNEHGTFNENHNQLWIVERFQSRDTYLIRSVHSNLVLDLSQGLSANGTPILCWTQHGGTNQQWRIEWVKDDNKTPLYRIVSVATGTAISHNEDDSSAYTVAWSVDDGPKQLWSFDPFVTPLLYRLRVKSTSRVLDLAAASADNGTLALAWEQHTAITKRNQLWWLPYRSGAEEYTIQCLETSTVADLSGGNSGNGTPIYGWQSHGGRNQQWKFEPTSDSGDYYHIKNVEGGSVMDAYMNDSQKRVGGWSNNGGDNQKWLLDPLPSPGPGWVLIQNGGTGKFLCSTPSGDIGTADGPETVYDYSVQWRFIQREYTGVYHVVNRATGAYLRQIGTSMPSIGLAEENDDELKDWWMLETYDNSEIGLASIISRWTGNVLDHYGGVSVQALDNNTENSYRSWAIIPARDWLTSFSLVNGQGGLCLAAQYAREETRLSTTANVNDFHAQWVFRKPSGSSGYTIQNKYNNHYVGGTSARWELVVCCNKYFGIRNTSTQKYLAIEDGQVTFQDQDMTDRKQCWELCSGRATDTSGNDYDLIYMDDDLLEVMIPWVGDKQGDLKHYIEKRATKKPPKDKGGWQLPAAGLIKKPKFNDIRQLLQELIEQWEWDVVNEEREQIQTLVSIDEAEARRLLGRRPHPDIVAAYQRSRSSTLFRIDRQGYFNIAGDRYVNIQGQYGDDSYFHIALPVGVRFGREQIRRFLRDSLDRSTSVTITPTTCKPPSGGPDYNRDPDSDGDNSWIKWTIAVVGTSAIKHSEL
**Q.** With B1 as the binder, how does the “glycan array binding signal (z-score)” value [1] read?
**A.** Its value is -0.45.

**Q.** What about the “glycan array binding signal (z-score)” value [2] of the same binder?
**A.** The value was 0.729.

**Q.** What about the “glycan array binding signal (z-score)” value [3] of the same binder?
**A.** The value was -0.387.

**Q.** What about the “glycan array binding signal (z-score)” value [4] of the same binder?
**A.** Its value is -0.467.

**Q.** What about the “glycan array binding signal (z-score)” value [5] of the same binder?
**A.** The value was -0.457.

**Q.** And the “glycan array binding signal (z-score)” value [6]?
**A.** Its value is -0.487.

**Q.** And the “glycan array binding signal (z-score)” value [7]?
**A.** The value was -0.454.

**Q.** And the “glycan array binding signal (z-score)” value [8]?
**A.** Its value is -0.392.

**Q.** What about the “glycan array binding signal (z-score)” value [9] of the same binder?
**A.** Its value is -0.421.

**Q.** What about the “glycan array binding signal (z-score)” value [10] of the same binder?
**A.** The value was -0.467.

**Q.** What about the “glycan array binding signal (z-score)” value [11] of the same binder?
**A.** The value was -0.382.

**Q.** And the “glycan array binding signal (z-score)” value [12]?
**A.** Its value is -0.37.

**Q.** What about the “glycan array binding signal (z-score)” value [13] of the same binder?
**A.** The value was -0.48.

**Q.** What about the “glycan array binding signal (z-score)” value [14] of the same binder?
**A.** Its value is -0.468.

**Q.** And the “glycan array binding signal (z-score)” value [15]?
**A.** Its value is -0.369.

**Q.** What about the “glycan array binding signal (z-score)” value [16] of the same binder?
**A.** The value was -0.511.

**Q.** And the “glycan array binding signal (z-score)” value [17]?
**A.** Its value is -0.484.

**Q.** And the “glycan array binding signal (z-score)” value [18]?
**A.** The value was -0.402.

**Q.** And the “glycan array binding signal (z-score)” value [19]?
**A.** Its value is -0.393.

**Q.** What about the “glycan array binding signal (z-score)” value [20] of the same binder?
**A.** Its value is -0.445.

**Q.** What about the “glycan array binding signal (z-score)” value [21] of the same binder?
**A.** The value was -0.444.

**Q.** What about the “glycan array binding signal (z-score)” value [22] of the same binder?
**A.** The value was -0.407.

**Q.** And the “glycan array binding signal (z-score)” value [23]?
**A.** The value was -0.42.

**Q.** What about the “glycan array binding signal (z-score)” value [24] of the same binder?
**A.** The value was 0.306.

**Q.** And the “glycan array binding signal (z-score)” value [25]?
**A.** The value was -0.474.

**Q.** And the “glycan array binding signal (z-score)” value [26]?
**A.** Its value is -0.481.

**Q.** And the “glycan array binding signal (z-score)” value [27]?
**A.** The value was -0.535.

**Q.** What about the “glycan array binding signal (z-score)” value [28] of the same binder?
**A.** Its value is -0.461.

**Q.** And the “glycan array binding signal (z-score)” value [29]?
**A.** Its value is -0.186.

**Q.** And the “glycan array binding signal (z-score)” value [30]?
**A.** The value was -0.505.
